# This is one part of the list. Many values rest on one well or one pass, so single values are uncertain.
# Test system: LB2518-MEL
# Assay: cell count relative to DMSO control; melanoma cells; higher = more viable cells
# Conditions: library dose: low library concentration; 72 h
# 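Also: cell number obtained by counting DAPI-stained nuclei in high-throughput microscope images with image analysis software, screen run in 1,536-well plates.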
row,SMILES,cell count
1,"C[C@]12O[C@H](C[C@]1(O)CO)n1c3ccccc3c3c4c(c5c6ccccc6n2c5c31)CNC4=O [Lestaurtinib] + CN1CCN(c2ccc3nc(-c4c(N)c5c(F)cccc5[nH]c4=O)[nH]c3c2)CC1 [Dovitinib] (first compound 0.004 µM, partner dose 0.1 µM)",81.6%
2,"C[C@]12O[C@H](C[C@]1(O)CO)n1c3ccccc3c3c4c(c5c6ccccc6n2c5c31)CNC4=O [Lestaurtinib] + CCCCCCCCc1ccc(CCC(N)(CO)CO)cc1 [fingolimod] (first compound 0.004 µM, partner dose 2 µM)",108%
3,"C[C@]12O[C@H](C[C@]1(O)CO)n1c3ccccc3c3c4c(c5c6ccccc6n2c5c31)CNC4=O [Lestaurtinib] + CNC(=O)c1cc(Oc2ccc(NC(=O)Nc3ccc(Cl)c(C(F)(F)F)c3)cc2)ccn1 [sorafenib] (first compound 0.004 µM, partner dose 0.4 µM)",92.6%
4,"N.N.[Cl][Pt][Cl] [cisplatin] + CO[C@H]1C[C@@H]2CC[C@@H](C)[C@@](O)(O2)C(=O)C(=O)N2CCCC[C@H]2C(=O)O[C@H]([C@H](C)C[C@@H]2CC[C@@H](OCCO)[C@H](OC)C2)CC(=O)[C@H](C)/C=C(\C)[C@@H](O)[C@@H](OC)C(=O)[C@H](C)C[C@H](C)/C=C/C=C/C=C/1C [everolimus] (first compound 1.6 µM, partner dose 0.02 µM)",77.4%
5,"C[C@]12O[C@H](C[C@]1(O)CO)n1c3ccccc3c3c4c(c5c6ccccc6n2c5c31)CNC4=O [Lestaurtinib] + C=CCNC1=C2C[C@@H](C)C[C@H](OC)[C@H](O)[C@@H](C)/C=C(\C)[C@H](OC(N)=O)[C@@H](OC)/C=C\C=C(/C)C(=O)NC(=CC1=O)C2=O [Tanespimycin] (first compound 0.004 µM, partner dose 0.002 µM)",100%
6,"C[C@]12O[C@H](C[C@]1(O)CO)n1c3ccccc3c3c4c(c5c6ccccc6n2c5c31)CNC4=O [Lestaurtinib] + COc1ccc(Cl)c(Nc2nc3ccccc3nc2NS(=O)(=O)c2cccc(NC(=O)C(C)(C)N)c2)c1 [XL147] (first compound 0.004 µM, partner dose 0.8 µM)",79.3%
7,"C[C@]12O[C@H](C[C@]1(O)CO)n1c3ccccc3c3c4c(c5c6ccccc6n2c5c31)CNC4=O [Lestaurtinib] + CCN(CC)CCNC(=O)c1c(C)[nH]c(/C=C2\C(=O)Nc3ccc(F)cc32)c1C [sunitinib] (first compound 0.004 µM, partner dose 0.4 µM)",87.6%
8,"C[C@]12O[C@H](C[C@]1(O)CO)n1c3ccccc3c3c4c(c5c6ccccc6n2c5c31)CNC4=O [Lestaurtinib] + CS(=O)(=O)c1ccc(C(=O)Nc2ccc(Cl)c(-c3ccccn3)c2)c(Cl)c1 [vismodegib] (first compound 0.004 µM, partner dose 1 µM)",90.4%
9,"C[C@]12O[C@H](C[C@]1(O)CO)n1c3ccccc3c3c4c(c5c6ccccc6n2c5c31)CNC4=O [Lestaurtinib] + CC(=O)c1c(C)c2cnc(Nc3ccc(N4CCNCC4)cn3)nc2n(C2CCCC2)c1=O [palbociclib] (first compound 0.004 µM, partner dose 0.04 µM)",116%
10,"C[C@]12O[C@H](C[C@]1(O)CO)n1c3ccccc3c3c4c(c5c6ccccc6n2c5c31)CNC4=O [Lestaurtinib] + Nc1nc(F)nc2c1ncn2[C@@H]1O[C@H](CO)[C@@H](O)[C@@H]1O [fludarabine] (first compound 0.004 µM, partner dose 0.2 µM)",95.6%
11,"Cn1cc(C2=C(c3cn(C4CCN(Cc5ccccn5)CC4)c4ccccc34)C(=O)NC2=O)c2ccccc21 [Enzastaurin] + C[C@]12O[C@H](C[C@]1(O)CO)n1c3ccccc3c3c4c(c5c6ccccc6n2c5c31)CNC4=O [Lestaurtinib] (first compound 0.8 µM, partner dose 0.004 µM)",86.1%
12,"C[C@]12O[C@H](C[C@]1(O)CO)n1c3ccccc3c3c4c(c5c6ccccc6n2c5c31)CNC4=O [Lestaurtinib] + CS(=O)(=O)CCNCc1ccc(-c2ccc3ncnc(Nc4ccc(OCc5cccc(F)c5)c(Cl)c4)c3c2)o1 [lapatinib] (first compound 0.004 µM, partner dose 0.8 µM)",88.4%
13,"C[C@]12O[C@H](C[C@]1(O)CO)n1c3ccccc3c3c4c(c5c6ccccc6n2c5c31)CNC4=O [Lestaurtinib] + Clc1ccc(Nc2nnc(Cc3ccncc3)c3ccccc23)cc1 [vatalanib] (first compound 0.004 µM, partner dose 2 µM)",112%
14,"C[C@]12O[C@H](C[C@]1(O)CO)n1c3ccccc3c3c4c(c5c6ccccc6n2c5c31)CNC4=O [Lestaurtinib] + Cc1cc(Nc2cc(N3CCN(C)CC3)nc(/C=C/c3ccccc3)n2)n[nH]1 [ENMD2076] (first compound 0.004 µM, partner dose 0.04 µM)",99%
15,"C[C@]12O[C@H](C[C@]1(O)CO)n1c3ccccc3c3c4c(c5c6ccccc6n2c5c31)CNC4=O [Lestaurtinib] + C#Cc1cccc(Nc2ncnc3cc(OCCOC)c(OCCOC)cc23)c1 [erlotinib] (first compound 0.004 µM, partner dose 0.8 µM)",79.6%
16,"C[C@]12O[C@H](C[C@]1(O)CO)n1c3ccccc3c3c4c(c5c6ccccc6n2c5c31)CNC4=O [Lestaurtinib] + Nc1ncn([C@H]2C[C@H](O)[C@@H](CO)O2)c(=O)n1 [decitabine] (first compound 0.004 µM, partner dose 0.1 µM)",81.2%
17,"C[C@]12O[C@H](C[C@]1(O)CO)n1c3ccccc3c3c4c(c5c6ccccc6n2c5c31)CNC4=O [Lestaurtinib] + COCC[n+]1c2c(n(Cc3cnccn3)c1C)C(=O)c1ccccc1C2=O [YM155] (first compound 0.004 µM, partner dose 0.0004 µM)",99.1%
18,"C[As](C)SC[C@H](NC(=O)CC[C@H](N)C(=O)O)C(=O)NCC(=O)O [Darinaparsin] + COC(=O)c1sccc1S(=O)(=O)Nc1ccc(Nc2ccccc2)cc1OC [GSK0660] (first compound 0.4 µM, partner dose 1 µM)",105%
19,"C[C@]12O[C@H](C[C@]1(O)CO)n1c3ccccc3c3c4c(c5c6ccccc6n2c5c31)CNC4=O [Lestaurtinib] + C[C@]1(c2nc3c(C(N)=O)cccc3[nH]2)CCCN1 [Veliparib] (first compound 0.004 µM, partner dose 1.4 µM)",95.8%
20,"C[As](C)SC[C@H](NC(=O)CC[C@H](N)C(=O)O)C(=O)NCC(=O)O [Darinaparsin] + O=C(Oc1ccc([N+](=O)[O-])cc1)N1CCC(C(O)(c2ccc3c(c2)OCO3)c2ccc3c(c2)OCO3)CC1 [JZL184] (first compound 0.4 µM, partner dose 1 µM)",105%

# Reference: the supplement of paper PMC4604168 (melanoma cell lines)
